# This is one part of the list.
# System: PfHDP1 homeodomain (GST-tagged)
# Test: gcPBM binding intensity (ln(normalized median fluorescence intensity)); higher = stronger DNA binding
# In short: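 After 1 h on an Agilent 4 × 180k array of primer-extended double-stranded 36-bp intergenic genomic probes and negative controls, bound GST-tagged P. falciparum DNA-binding domains were detected with Alexa488 anti-GST antibody and scanned at 488 nm. The domains had been expressed in E. coli, and binding took place in 1× PBS with 1% milk, 0.2 mg/ml BSA, 0.5% salmon testes DNA and 0.03% Triton X-100. Binding intensity is the highest Masliner-normalised natural-log median intensity across replicate spots of either probe orientation.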
row,Sequence,gcPBM binding intensity (ln)
1,ATTTATTTGAAGAATTGTACTAAATTATATAGCGGT [XGTACX_site4998],6.76
2,TATAAAAAAATATATATATATATTATATGTGTAGAA [TGCATGCA_negctrl_site391],7.03
3,ATAAATATTTATAACAGTACATATTTACTATCCTAA [XGTACX_site4497],6.16
4,TTATATATAATATGACGTACAATTATACATTTTATG [XGTACX_site7598],6.43
5,TATACACATATTTTTACACACATATTTTTTCATATA [CACACA_site7244],6.95
6,ACGATTAAATCGATAATACACACTAAATGTAAAACA [CACACA_site119],6.63
7,TATATTATTTTTAGAAGTACTTATTGTTATAATTCT [XGTACX_site1015],6.09
8,AGAAAAGATAAAAATAGTACATATATATTTACTTAT [XGTACX_site7820],6.25
9,CTCCTTTCAAAAAAATGTACATGTTTACATTTCAAG [XGTACX_site7342],6.56
10,TAGGAAAAAAATACAGTGCAATTTTTATATAAATAA [GTGCAC_site9979],8.04
11,TACATATTTTATAACTGTACTTTTTTATTATCCAAT [XGTACX_site5396],6.53
12,TTTATATAAATCAAATGTACATATTCCAAATATATA [XGTACX_site8515],6.35
13,TTTTTTTTTTTTTTGTGTACTAATATTATAAATTTT [XGTACX_site4405],6.44
14,TTTTTTTTTTCAAATACATGCATTTATGTATAATAC [TGCATGCA_site722],6.32
15,TGCTTATTTAGAATTGTGCACAGCGAATATTCTGTT,10.3
16,TACATTTATACTACTGCATTCAAAAAAAATAAAAAA [TGCATGCA_negctrl_site157],6.44
17,TTTTGTTATTTTTCAGTGCAATATGATAATAATATA,9.56
18,GAATCCTTAATATGAACACACAAATATATTACCCAT [CACACA_site186],6.78
19,TCTTTTTAACAAAAAAAAAAAAAAAAAAAAAAATTA [CACACA_negctrl_site1637],5.72

row,Sequence,gcPBM binding intensity (ln)
1,AGAATTTTATTATATTGTACTTTTTATAAACCTTGT [XGTACX_site7495],6.34
2,ATATATTTACTTAATACACACAAAAAAAAAAAAAAA [CACACA_site3657],6.38
3,TTTAATTTTTATATAACACACATATTGGAATTATGT [CACACA_site734],6.43
4,TTATGTATTACCTGCCGTACTTCTAAAATAATTAAA [XGTACX_site1716],6.67
5,TTAAATGTGAAGTGAATACACACCTAATAAATATAA [CACACA_site3194],6.34
6,TTTTTTACATACAGAAATATATAATATAAAATAAAT [GTGCAC_negctrl_site278],6.25
7,ATATATTTTTAATTTGCATGTAGTAAAGCCTTAAAT [TGCATGCA_site593],6.55
8,CATCAAGTGAATTGTTGTACTTTACATTGTTTTTAT [XGTACX_site7261],6.76
9,ATGTTGTACAGACACACACACAAAAAAAAAATAAAA [CACACA_site7184],6.72
10,ATATATATATATATATGTACATACATACAATCATAT [XGTACX_site6410],9.3
11,TATAAATTTTGTTTAGCACACACACCGACATACATA [CACACA_site9033],7.12
12,TATAATAGCTTCTTTACACACACCATTTTTTTTTTT [CACACA_site1456],6.77
13,CTTACATATTACATATGTACATATACACCTTATGTC [XGTACX_site4679],6.75
14,TATAATATGTTATATACACACATTATAAAATACACA [CACACA_site6742],6.85
15,AAAAAAAAAATTAATTGTACTAAAAAAATATTATAT [XGTACX_site8903],6.41
16,TAATAATAAATAAAATGTACATATGAACAAATAAGT [XGTACX_site6710],7.2
17,TGTTTTCTTGATTATTGTACTTTAATTAGTAATATG [XGTACX_site8674],6.69
18,TAAATACATTTATGTACACACACATAGATGTATATT [CACACA_site5618],6.37
19,TGAATATTCATGTGTGTGCGCATGTTGTTAGACCAT [GTGCAC_site9869],7.39

row,Sequence,gcPBM binding intensity (ln)
1,AAAAATATTATAAGCACACATATATATATATATATA [CACACA_site2458],9.59
2,TGTTACAAAAAATAATGTACTTAATATATATATATA [XGTACX_site1016],8.88
3,TATCTTCATTTTTTTGGTACGCACGCAAATATGGCT [XGTACX_site3107],6.69
4,ACTGTCATTTATTGTAGTACGTCAATTTATTACATT [XGTACX_site2749],6.48
5,GTAGGTTACAAAATGTGAGAGAAGCAAATATAGAAA [CACACA_negctrl_site1819],6.96
6,CATCACCTTTTTAAATGTACGCATAATACCAAAAAA [XGTACX_site1587],6.54
7,TTTTGTTTTTAGTTTATACACACCATATTAATATAA [CACACA_site3102],7.58
8,TTGTATTAAAATCAAGTGCATATAATTTAAGTTCAT [GTGCAC_site9495],8.32
9,CTTTGGTTATAACACACATGCACACGTAAATAAATA [TGCATGCA_site976],9.14
10,ACTATTTTAAAAATATGTACATACGTTGTAATTTAA [XGTACX_site7999],6.67
11,TTTCCGGTAATATGGAAATATATGTGGGTTTTTTTT [CACACA_negctrl_site1536],6.41
12,CGAAGGATAAACATACGTACATATATGTGTATAATA [XGTACX_site779],7.11
13,TATATTTATAAATGAACACACACGCAATTTGAATCG [CACACA_site3370],7.05
14,CTGTATTTATTTTTCTGTACCAAATCACCCCTTGTA [XGTACX_site395],6.74
15,TTTCTTTTTCGATATACACACTGTATGTGTCTAAAA [CACACA_site6054],6.49
16,GATGTATAAAATAATACATGCATGTCCTACATATAT [TGCATGCA_site155],6.54
17,TACGTTTTATGACACACACACAAAAAAAAAAAAAAA [CACACA_site7764],6.37
18,TATAGCAAAATATTCACACAAACTATTAATAAAAGT [CACACA_site5795],6.55
19,AATGGTTATAATATATGTACATATAAATATACTGAA [XGTACX_site8533],6.6
